# The whole screen tested about 43,000 compounds, of which about 200 (0.47%) were called active. About 12% were inconclusive and are not listed. Calls follow the shape of the dose curve; as a rule, active = well fitted cell-killing curve with a large enough effect; inconclusive = small, poorly fitted or top-dose-only effect, or effect the other way; inactive = flat fitted curve, though single readings scatter. The list shows a part of the results.
# Test: Cell viability qHTS assay in S16 Pmp22-F2sN cells; also: nearly all actives have a fitted effect of over 65% in size
# Conditions: S16 Pmp22-F2sN Schwann cells viability, CellTiter-Glo, 24 h; series mostly up to 57.5 µM; activity change, negative = cytotoxicity: at the top concentration
# Method in brief: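 S16 Pmp22-F2sN Schwann cells (500-1,000/well) in phenol-red-free DMEM with 10% FBS received 23 nL compound by pin tool for 24 h at 37 °C. Viability was then read as CellTiter-Glo luminescence after 15 min at room temperature.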
# % is scaled to controls: 0 for no effect and ±100 for the full control effect.
row,Structure (SMILES),"activity change, negative = cytotoxicity"
1,COc1ccc(N2CCN(c3ncnc4onc(C)c34)CC2)cc1,inactive: -19.9%
2,CCOc1ccccc1NC(=O)C1CCN(S(=O)(=O)c2cccc3nonc23)CC1,inactive: 0.814%
3,COCCNC(=O)CCn1c(=O)[nH]c2cc(OC)c(OC)cc2c1=O,inactive: 0.687%
4,CC1=C(C(=O)Nc2ccc(F)cc2)C(c2ccc(N(C)C)cc2)NC(=O)N1 (stereo not drawn),inactive: 6.02%
5,CCOc1ccc(CCNC(=O)Cn2ccc3cc(S(=O)(=O)N4CCCCCC4)ccc32)cc1,inactive: -10.4%
6,CCC1CN(C(=O)C2CCN(S(=O)(=O)c3c(C)noc3/C=C/c3ccc(C)cc3)CC2)c2cc(C)ccc2O1 (stereo not drawn),inactive: 1.74%
7,CCN(CC)CCCNC(=O)C(C)n1nc(C)n2c(cc3occc32)c1=O (stereo not drawn),inactive: 21.8%
8,COc1ccc(Cl)cc1NC(=O)COC(=O)CC(C)(C)CC1=NS(=O)(=O)c2ccccc2N1,inactive: -14.7%
9,COc1ccc(NC(=O)CSc2nnc(-c3nonc3NC(C)=O)n2C)cc1Cl,inactive: -7.75%
10,Cc1ccc(-n2ccnc(NCCc3ccccc3)c2=O)cc1C,inactive: 31%
11,Cc1ccccc1-n1c2nc(=O)[nH]c(=O)c-2cc2c(Cl)cccc21,inactive: -0.0098%
12,Cc1ccc2[nH]c(CSc3nnc(C)s3)cc(=O)c2c1,inactive: -5.77%
13,COc1ccc(CCNC(=O)Cn2c(=O)nc(-c3ccccc3F)c3cc(Cl)ccc32)cc1OC,inactive: -1.91%
14,COC(=O)c1ccccc1NC(=O)CN(c1ccc(Cl)cc1)S(=O)(=O)c1ccc(OC)cc1,inactive: 26.5%
15,CCOC(=O)c1c(NC(=O)c2ccccc2C)sc2c1CCCC2,inactive: 6.14%
16,Cc1nc(-n2nc(C)c(CCC(C)C)c2C)sc1C(=O)Nc1cccc(Cl)c1C,inactive: 1.53%
17,O=C(CN1C(=O)COc2ccc(S(=O)(=O)N3CCCC3)cc21)NCCc1ccc(Cl)cc1,inactive: -0.307%
18,O=C(OCc1ccco1)c1ccc2c(c1)N(Cc1ccc([N+](=O)[O-])cc1)C(=O)c1ccccc1S2,inactive: 13%
19,Cn1nnnc1SCCCNCc1ccc(-c2cccc(Cl)c2)o1,inactive: 15%
20,Brc1ccc(-c2nc(N3CCN(c4ccccc4)CC3)c3ccccc3n2)cc1,inactive: -23.2%
21,CCOc1ccc2nc(N3CCN(C(=O)C(C)C)CC3)sc2c1,inactive: 0.408%
22,O=c1[nH]c2ccc(NS(=O)(=O)c3ccc(F)cc3)cc2s1,inactive: 2.43%
23,COc1ccc2oc(=O)cc(CN3CCN(C(=O)c4ccccc4Br)CC3)c2c1,inactive: -25.4%
24,Cc1ccc(SCC(=O)Nc2ccc3oc(-c4ccc(F)cc4)nc3c2)cc1,inactive: 8.73%
25,COc1ccc(C(=O)NCc2nnc(SCC(=O)Nc3ccc(C)cc3)n2-c2ccccc2)cc1,inactive: -1.94%

row,Structure (SMILES),"activity change, negative = cytotoxicity"
1,CCc1nc2nc(C)cc(Nc3cc(Cl)ccc3OC)n2n1,inactive: -16.6%
2,CCc1ccc(CNC(=O)c2ccc(NC(=O)N3CCSc4ncccc43)cc2)cc1,inactive: -2.11%
3,COc1cccc(CNC(=O)c2ccc3c(Cl)c4c(nc3c2)CCCC4)c1,inactive: 10.9%
4,Cc1cccc(N(C)C(=O)CS(=O)(=O)c2cccc3nsnc23)c1,inactive: 2.72%
5,CC(C)NC(=O)Cn1c(=O)nc(-c2ccccc2)c2ccccc21,inactive: 9.03%
6,CCOc1ccc(CCNC(=O)c2ccc(C)c(-n3cnc4cccnc43)c2)cc1,inactive: 2.01%
7,CCn1cnc2cc(NCc3ccc(N(C)C)cc3)ccc21,inactive: -11%
8,CC(C)c1ccc(NC(=O)CN(C)S(=O)(=O)c2ccc3c(c2)n(C)c(=O)c(=O)n3C)cc1,inactive: -10.8%
9,CCOC(=O)N1CCN(CCC(=O)Nc2cc(C)ccc2C)CC1,inactive: 4.31%
10,CCOc1ccc(C(=O)Nc2ccc3nc(SCC(=O)N4CCCC4)sc3c2)cc1,inactive: 1.14%
11,CCc1ccc(CNC(=O)c2cnc3sc(N4CCCCCC4)nn3c2=O)cc1,inactive: 14.7%
12,CCC1CCCCN1C(=O)CSc1nc(-c2ccc(OC)cc2)cc(C(F)(F)F)n1 (stereo not drawn),inactive: -2.76%
13,CCCC(=O)Nc1nnc(S(=O)(=O)N(C)c2ccccc2)s1,inactive: -4.9%
14,COc1ccc(S(=O)(=O)N(CCc2ccccc2)CC(=O)NCc2ccc(C)cc2)cc1,inactive: -0.181%
15,Cc1ccc(CSc2nc3cccnc3n2Cc2nc(-c3ccccc3F)oc2C)cc1,inactive: -16.3%
16,CCOc1ccc(CNC(=O)CN2C(=O)CSc3c2c(C)nn3-c2ccccc2)cc1,inactive: 29.6%
17,COCCNC(=O)c1ccc(NC(=O)N2CCCCc3ccccc32)cc1,inactive: -0.126%
18,O=C(Nc1c(O)c2ccccc2oc1=O)c1ccccc1Cl,inactive: -4.49%
19,O=C(C1CC1)N1CCc2cc(Br)cc(S(=O)(=O)Nc3ccc(C(F)(F)F)cc3)c21,inactive: 8.01%
20,CCOc1ccc(-n2nc3ccc(NC(=O)COc4ccccc4C)cc3n2)cc1,inactive: 15%
21,COc1ccc(NC(=O)C(=O)NCCc2csc3nc(-c4ccccc4C)nn23)cc1,inactive: 15.9%
22,COc1cccc(CNC(=O)C2CCCN(c3nnc(-n4c(C)ccc4C)s3)C2)c1 (stereo not drawn),inactive: -6.25%
23,O=C(NCC(c1cccnc1)N1CCN(Cc2ccccc2)CC1)C(=O)Nc1ccc(F)cc1 (stereo not drawn),inactive: -0.332%
24,COC(=O)c1ccccc1NC(=O)CSc1c2c(nc3ccc(Cl)cc13)CCCC2,inactive: 16.8%
25,CCOc1ccc(CN2C(=O)c3ccccc3Sc3ccc(C(=O)NC4CCC(C)CC4)cc32)cc1 (stereo not drawn),inactive: 5.34%

row,Structure (SMILES),"activity change, negative = cytotoxicity"
1,CCOC(=O)c1ccccc1NC(=O)CCc1c(C)nc2c(c1C)c(=O)n(C)c(=O)n2C,inactive: -0.107%
2,Cc1ccc(Cn2c(Cc3ccccc3)nc3ccccc32)cc1,inactive: -21.1%
3,COC(=O)c1ccc(NC(=O)CCOc2ccccc2)cc1,inactive: 3.65%
4,O=C(NC1CC(=O)N(c2ccc(F)cc2)C1)C(c1ccccc1)c1ccccc1 (stereo not drawn),inactive: -2.53%
5,Cn1cc(C(=O)N2CCN(c3ccccc3)CC2)c(=O)c2cc(S(=O)(=O)N3CCCC3)ccc21,inactive: -21.5%
6,COC(=O)c1ccc(NC(=O)c2cc3cc4ccc(OC)c(Cl)c4nc3s2)cc1,inactive: 3.14%
7,CC(=O)c1ccc(NC(=O)c2nn(C)c3c2COc2ccccc2-3)cc1,inactive: 3.66%
8,COc1ccccc1NC(=O)C1=C(C)Nc2nc(SCc3ccccc3)nn2C1c1cccs1 (stereo not drawn),inactive: -8.93%
9,Cc1ccc(NC(=O)c2sc3nc[nH]c(=O)c3c2C)cc1C,inactive: -0.0557%
10,Cc1ccc(NC(=O)CN2C(=O)c3ccccc3Sc3ncccc32)c(C)c1,inactive: 24.3%
11,O=C(NCCc1ccc(Cl)cc1)c1ccc2c(c1)N(Cc1ccccc1)C(=O)CS2,inactive: -15.7%
12,O=c1c2ccccc2nc(-c2ccc(Cl)cc2)n1CCCCOc1ccc(F)cc1,inactive: 7.65%
13,CCOc1ccccc1NC(=O)N1CCC(N2CCN(Cc3ccccc3)C(=O)C2=O)CC1,inactive: -3.72%
14,CC(Oc1ccccc1F)C(=O)N1CCC(c2nc3ccccc3o2)CC1 (stereo not drawn),inactive: 1.65%
15,CCOC(=O)c1c(NC(=O)c2cc(-c3ccc(Br)cc3)on2)sc(C)c1C,inactive: -3.41%
16,CCc1cc2c(-c3ccccc3)cc(=O)oc2c2c1OCN(Cc1ccc(C)cc1)C2,inactive: 0.481%
17,CCN(Cc1ccccc1)S(=O)(=O)c1ccc(F)c(C(=O)Nc2ccc(C(C)C)cc2)c1,inactive: 0.544%
18,Cc1cccc(C)c1NC(=O)c1cc2sccc2n1Cc1ccc(F)cc1,inactive: -6.87%
19,COc1ccc(OC)c(CNc2ncc(-c3ccc(Cl)cc3)n2C)c1,inactive: 24%
20,COc1cc(NC(=O)C2CCN(S(=O)(=O)c3c(C)noc3/C=C/c3c(C)cc(C)cc3C)CC2)cc(OC)c1,inactive: 10.9%
21,Cc1ccc(CNC(=O)c2cn(C)c3ccc(S(=O)(=O)N4CCC(C)CC4)cc3c2=O)cc1,inactive: -2.67%
22,Cc1ccc(CNC(=O)CCCn2nc(C)n3c(cc4sccc43)c2=O)cc1,inactive: 4.46%
23,COc1cccc(C(=O)c2cn(CC(=O)Nc3ccc4c(c3)OCCO4)c3nc(C)ccc3c2=O)c1,inactive: -10.9%
24,CCC(=O)N1CCc2cc(S(=O)(=O)NC(CC(C)C)C(=O)NCc3cccc(OC)c3)ccc21 (stereo not drawn),inactive: -19.1%
25,Cc1ccc(Sc2c(C)nn(-c3ccccc3)c2OC(=O)CC(C)C)cc1,inactive: 3.85%

row,Structure (SMILES),"activity change, negative = cytotoxicity"
1,CCOc1ccc(CC(=O)NCc2ccc3c(c2)CCN3C(=O)c2ccc(F)cc2)cc1OCC,inactive: 4.76%
2,O=C(NCCCc1ccccc1)c1ccc2c(c1)sc1nc(-c3ccc(F)cc3)cn12,inactive: -22.2%
3,Cc1ccc(COC(=O)c2ccc(-c3nnn(Cc4ccc(C)cc4)n3)cc2)cc1,inactive: 1.75%
4,CCN(CCCNC(=O)CN1N=C(c2ccc(C)cc2)CCC1=O)c1ccccc1,inactive: -9.84%
5,CCOc1ccc(C2c3[nH]c4ccccc4c3CCN2C(=O)CCC2CCCC2)cc1 (stereo not drawn),inactive: -16.8%
6,CCOC(=O)C1CCCN(S(=O)(=O)c2cc(Br)cc3c2N(C(=O)CC)CC3)C1 (stereo not drawn),inactive: 6.2%
7,CCCCN(CC)C(=O)Cn1cc2c(n1)-c1c(oc(C(=O)N3CCCC3)c1C)CC2,inactive: 2.14%
8,CC(=O)C(Sc1nc(-c2ccccc2Cl)nc2c1c(=O)n(C)c(=O)n2C)C(=O)N(C)C (stereo not drawn),inactive: -9.55%
9,O=C(CCc1nnc2n(Cc3ccccc3Cl)c(=O)c3ccccc3n12)Nc1ccccc1,inactive: 7.45%
10,COc1ccc(NC(=O)c2ccc(-c3nc(CSc4ccccc4)c(C)o3)cc2)c(OC)c1,inactive: -9.39%
11,O=C(NCc1ccc2c(c1)CCN2C(=O)c1ccncc1)c1cccc(F)c1,inactive: 1.06%
12,CCOC(=O)c1[nH]c(C)c(C(=O)NCc2ccccc2Cl)c1C,inactive: -21.5%
13,CCN1C(=O)c2ccccc2S(=O)c2ccc(C(=O)N3CCN(c4cccc(Cl)c4)CC3)cc21 (stereo not drawn),inactive: -4.36%
14,COC(=O)c1cc(NC(=O)CCc2c(C)nc3nc(C)nn3c2C)cc(C(=O)OC)c1,inactive: -8.22%
15,O=C(Cc1ccc(F)cc1)NCCc1csc2nc(-c3ccc(Cl)cc3)nn12,inactive: -28.7%
16,CCOc1ccc(NC(=O)Cn2cc(C(=O)c3ccccc3)c(=O)c3cc(OC)ccc32)cc1,inactive: 0.124%
17,CCOC(=O)Cn1c(=O)cc(C)c2c(C)nn(-c3cccc(F)c3)c21,inactive: -14.1%
18,Cc1ccc2c(c1)-c1onc(C(=O)N(C)c3ccc(F)cc3)c1CO2,inactive: 28%
19,Cc1cccc(CC(=O)Nc2cccc(-c3cn4cccnc4n3)c2)c1,inactive: -2.74%
20,CCCCn1c(SCc2ccccc2C#N)nc2c(sc3ccccc32)c1=O,inactive: -0.835%
21,Cc1ccc(-n2ncc3c(=O)n(Cc4cccc(C(F)(F)F)c4)cnc32)cc1C,inactive: 5.22%
22,CC1=C(C(=O)Nc2ccccc2C)C(c2ccc[nH]2)n2ncnc2N1 (stereo not drawn),inactive: -4.9%
23,CCOC(=O)c1sc(NC(=O)c2nc3ncccn3n2)c(C(=O)OC(C)C)c1C,inactive: 5.44%

# — PubChem BioAssay AID1508642 (National Center for Advancing Translational Sciences (NCATS), 2021)
